# Measured values: the supplement of paper PMC8047034
# Counter-ions that a name gives are not always drawn. The list shows a part of the results. Single values are uncertain, as repeats are few or missing.
# Legend:
# OVCAR4 = assay: log2 surviving fraction (library drug vs vehicle, or drug + carboplatin vs carboplatin alone; relative to plate median); ovarian cancer lines: OVCAR4 is platinum-sensitive and Ov4Carbo platinum-resistant; higher = more cell survival; conditions: library drug concentration 10 µM, 7 days
# Ov4Carbo = assay: as above; conditions: library drug concentration 10 µM, 7 days
SMILES,log2 surviving fraction (OVCAR4; carboplatin co-treatment 0 µM),log2 surviving fraction (OVCAR4; carboplatin co-treatment 5 µM),log2 surviving fraction (Ov4Carbo; carboplatin co-treatment 0 µM),log2 surviving fraction (Ov4Carbo; carboplatin co-treatment 5 µM)
CC(C)(C)CC(C)(C)c1ccc(OCCOCC[N+](C)(C)Cc2ccccc2)cc1 [Benzethonium chloride],-9.71,-7.46,-8.52,-7.7
COc1ccc2c(c1OC)C(=O)O[C@@H]2[C@H]1c2c(cc3c(c2OC)OCO3)CCN1C [Noscapine HCl],-1.43,-0.16,0.0651,0.0695
O=C(O)c1cc(=O)c2ccccc2o1 [Chromocarb],-0.423,0.48,0.4,0.239
CCOC(=O)C1=C[C@]2(CC)CCCN3CCc4c(n1c1ccccc41)[C@@H]32 [Vinpocetine (Cavinton)],-0.422,0.348,-0.304,-0.172
C[C@@]12C[C@@]3(O)O[C@@H](O1)[C@]1(COC(=O)c4ccccc4)[C@H]3C[C@@]12O[C@@H]1O[C@H](CO)[C@@H](O)[C@H](O)[C@H]1O [Paeoniflorin],2.33,2.35,2.22,1.22
NS(=O)(=O)c1cc2c(cc1C(F)(F)F)NC(Cc1ccccc1)NS2(=O)=O (stereo unspecified) [Bendroflumethiazide],0.695,-7.06,-0.76,2.08
NS(=O)(=O)c1cc2c(cc1Cl)NC(C(Cl)Cl)NS2(=O)=O (stereo unspecified) [Trichlormethiazide (Achletin)],-0.177,0.617,1.75,0.511
CCN(CC)CCOc1ccc(C(=C(Cl)c2ccccc2)c2ccccc2)cc1 [Clomifene citrate (Serophene)],-3.34,-4.54,-3.92,-3.31
N=C(N)c1ccc(N=NNc2ccc(C(=N)N)cc2)cc1 [Diminazene Aceturate],-2.16,-1.77,-1.5,-2.07
CCN1CCN(C(=O)N[C@@H](C(=O)N[C@@H]2C(=O)N3C(C(=O)O)=C(CSc4nnnn4C)CS[C@H]23)c2ccc(O)cc2)C(=O)C1=O [Cefoperazone (Cefobid)],0.35,-0.744,0.816,0.159
Cc1c(OCC(F)(F)F)ccnc1C[S@@+]([O-])c1nc2ccccc2[nH]1 [Dexlansoprazole],-0.987,-0.629,-1.34,-0.602
C=C1/C(=C\C=C2/CCC[C@]3(C)[C@@H]([C@H](C)CCCC(C)C)CC[C@@H]23)C[C@@H](O)C[C@@H]1O [Alfacalcidol],-0.152,-0.27,-1.32,-0.571
CCOC(=O)[C@H](CCc1ccccc1)N[C@@H](C)C(=O)N1Cc2cc(OC)c(OC)cc2C[C@H]1C(=O)O [Moexipril HCl],0.259,0.69,1.95,1.29
CN(c1nccc(=O)[nH]1)C1CCN(c2nc3ccccc3n2Cc2ccc(F)cc2)CC1 [Mizolastine (Mizollen)],1.29,1.02,0.389,0.911
O=c1[nH]c(=O)n(C2CCCO2)cc1F (stereo unspecified) [Ftorafur],0.771,-7.48,0.332,-0.115
O=C(O)c1cc(-c2ccccc2)nc2ccccc12 [Cinchophen],0.29,-0.288,0.485,-0.613
C#C[C@]1(O)CC[C@H]2[C@@H]3CCC4=CC(=O)CC[C@@H]4[C@H]3CC[C@@]21CC [Levonorgestrel (Levonelle)],0.231,0.536,-0.142,-0.192
COc1ccc(C(=O)N2CCCC2=O)cc1 [Aniracetam],0.811,-0.427,-0.477,1.23
CCOC(=O)C1=C(COCCN)NC(C)=C(C(=O)OC)C1c1ccccc1Cl (stereo unspecified) [Amlodipine besylate (Norvasc)],-2.23,-1.85,-2.69,-2.03
OC1(c2ccc(Cl)c(C(F)(F)F)c2)CCN(CCCC(c2ccc(F)cc2)c2ccc(F)cc2)CC1 [Penfluridol],-9.72,-7.61,-8.11,-7.62
Cc1ccc(S(=O)(=O)NC(=O)NN2CCCCCC2)cc1 [Tolazamide],0.124,0.265,-0.397,0.289
C#C[C@]1(O)C=C[C@H]2[C@@H]3CCC4=CC(=O)CC[C@@H]4[C@H]3CC[C@@]21CC [Gestodene],-0.321,-1.29,-1.11,-2
Clc1ccc(C(Cn2ccnc2)OCc2csc3c(Cl)cccc23)c(Cl)c1 (stereo unspecified) [Sertaconazole nitrate],-1.88,-2.37,-1.22,-1.2
CCCCCCCCCCCCCCCC[n+]1ccccc1 [Cetylpyridinium Chloride],-9.17,-7.77,-8.36,-7.68
